# Measured values: PubChem BioAssay AID485364 (National Center for Advancing Translational Sciences (NCATS), 2010)
# Screen size: about 360,000 compounds; about 11,000 (3.1%) were called active. This list was built around the results that the source calls inconclusive (neither active nor inactive); the mix of calls is not that of the screen. Calls come from the whole dose curve; as a rule, active = well fitted inhibition curve with a large enough effect; inconclusive = small, poorly fitted or top-dose-only effect; inactive = no such curve, though single readings can be large or run the other way. No potency is given beside an inconclusive call; the fits are too rough.
# Molecular target: Schistosoma mansoni thioredoxin glutathione reductase (TGR) (UniProt Q962Y6)
# Assay: qHTS Assay for the Inhibitors of Schistosoma Mansoni Peroxiredoxins; note: nearly all actives have a fitted effect of over 60% in size
# Details: purified TGR, DTNB reduction, TNB absorbance 405 nm; activity change, negative = inhibition: at 114 µM (top of the series) unless noted
# Procedure, shortened: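 Kinetic colorimetric format: TGR-catalysed, NADPH-driven DTNB reduction monitored via TNB absorbance. Enzyme dispensed at 20 nM; compound exposure 15 min at room temperature before reaction start.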
# % is set by controls: 0 for no effect and ±100 for the full control effect; potency is the fitted concentration of half-maximal effect; tags give direction and shape of the fitted curve.
SMILES,Potency,"activity change, negative = inhibition"
O=c1[nH]n(-c2ccc(Cl)cc2)c(=O)c(Cl)c1Cl,active: 7.08 µM,
COc1ccc(C(C)(C)C)cc1NC(=O)c1ccc2ncsc2c1,,inactive: -1.25%
CC(C)(C)OC(=O)N[C@@H](Cc1ccccc1)[C@H](O)c1ccco1,"inconclusive [inhibitor, partial curve]",
COc1ccc(S(=O)(=O)n2nc(OC(C)=O)cc2N)cc1,active: 25.1 µM,
CCCCC1(C)NC(=O)N(CC(=O)Nc2ccc(S(=O)(=O)N3CCOCC3)cc2)C1=O (stereo not drawn),"inconclusive [inhibitor, single point]",
CC(C)(C)OC(=O)N/N=C\c1ccc(OC(=O)c2ccco2)cc1,,inactive: 14.2%
O=c1[nH]c(/C(=N\O)c2ccccc2)no1,"inconclusive [inhibitor, single point]",
Cc1ccc(Sc2c([N+](=O)[O-])c(=O)n(C)c3ccccc23)cc1,active: 2 µM,
COc1ccc(NC(=O)C2Cc3ccccc3CN2C(=O)c2ccco2)cc1 (stereo not drawn),"inconclusive [inhibitor, partial curve]",
Cc1ccc2nsnc2c1NS(=O)(=O)c1c(C)ccc2nsnc12,"inconclusive [inhibitor, partial curve]",
COCc1cc(Sc2ccc(Br)cc2)nc(-c2ccccc2)n1,"inconclusive [inhibitor, partial curve, poor fit]",
O=C(Nc1ccccc1F)c1ccc([N+](=O)[O-])s1,"inconclusive [inhibitor, partial curve]",
O=C(Nc1cccc(F)c1)c1coc(=O)c(Br)c1,"inconclusive [inhibitor, partial curve]",
CC(CC1C(C#N)=C(N)SC(N)=C1C#N)c1ccccc1 (stereo not drawn),"inconclusive [inhibitor, full curve]",
CC1CCC(NC(=O)CN2C(=O)c3cccnc3Oc3ccc(Cl)cc32)CC1 (stereo not drawn),"inconclusive [inhibitor, single point]",
COc1ccc(-c2ccc(CCC(=O)O)n2CC2CCCO2)cc1 (stereo not drawn),active: 35.5 µM,
CCOC(=O)C1=C(O)c2ccccc2C(=O)/C1=C\c1ccc(C)cc1,active: 3.55 µM,
Cc1onc(C(=O)NCc2ccc(F)cc2)c1[N+](=O)[O-],"inconclusive [inhibitor, partial curve]",
Cc1cccc(OCc2nc(C#N)c(NCc3ccccc3Cl)o2)c1,,inactive: 3.29%
COc1ccc(C(C#N)N2N=C(C)CC2c2ccccc2)cc1OC (stereo not drawn),"inconclusive [inhibitor, full curve]",
O=C(c1cc2ccccc2o1)N1CCN(S(=O)(=O)c2cccs2)CC1,,inactive: -21%
CCOC(=O)N1CCN(C(=O)C2CC(c3ccc(F)cc3)=NO2)CC1 (stereo not drawn),"inconclusive [inhibitor, single point]",
O=C(OCCCc1cc2ccccc2c(=O)o1)c1ccc(F)cc1,active: 35.5 µM,
O=C(COC(=O)Cc1ccccc1F)Nc1cccc(F)c1,,inactive: 1.26%

SMILES,Potency,"activity change, negative = inhibition"
CC(=O)OCC1=C(C(=O)O)N2C(=O)C(NC(=O)c3ccc(COc4c(C)cccc4Cl)o3)C2SC1 (stereo not drawn),active: 20 µM,
COc1cccc(NC(=O)Nc2ccc(C(C)(C)C)cc2)c1,,inactive: 2.92%
COc1ccc(C(=O)OCC(=O)N2CC(=O)Nc3ccccc32)cc1Br,,inactive: 0.0642%
CCNCc1ccccc1OCc1ccccc1,,inactive: 2.75%
O=C1C2CC=C(Cl)CC2C(=O)N1CC1OCCc2ccccc21 (stereo not drawn),active: 79.4 µM,
C[C@]12C=CC(=O)C=C1CC[C@H]1[C@@H]3C[C@@H](O)[C@](O)(C(=O)CO)[C@@]3(C)C[C@H](O)[C@@]12F,"inconclusive [inhibitor, partial curve]",
CCCN(C(=O)c1nn(-c2ccc(OC)cc2)c(=O)c2c1c1ccccc1n2C)c1ccc(CC)cc1,,inactive: -7.67%
COc1ccc2nc(SCC(=O)N3CCCCC3)c(C#N)cc2c1,"inconclusive [inhibitor, partial curve]",
COc1cccc(N2CCN(C(=O)CCc3nnc4ccc(N5CCOCC5)nn34)CC2)c1,"inconclusive [inhibitor, single point]",
COC(=O)c1ccc(S(=O)(=O)NC(C)(C)C)n1C,,inactive: 4.79%
CCn1nc([N+](=O)[O-])c(C(C#N)c2nc3cc(C(F)(F)F)ccc3s2)c(Cl)c1=O (stereo not drawn),active: 3.98 µM,
Cc1c(C(=O)c2no[n+]([O-])c2C(=O)c2cnn(C)c2C)cnn1C,"inconclusive [inhibitor, full curve, poor fit]",
Cc1ccc(C(=O)Nn2cnnc2)cc1S(=O)(=O)N1CCOCC1,,inactive: 0.574%
CC(=O)c1ccc(NC(=O)c2noc3c2CCc2ccccc2-3)cc1,,inactive: 1.54%
COc1cc2c(=O)c(S(=O)(=O)c3ccc(F)cc3)cn(Cc3ccc(Cl)cc3)c2cc1OC,,inactive: 3.19%
CC(C)(C)NS(=O)(=O)c1ccc(CCC(=O)NCc2ccco2)cc1,active: 35.5 µM,
O=C(Nc1ccccc1)C(c1ccccc1)C1CCCC1 (stereo not drawn),"inconclusive [inhibitor, single point]",
C/C(CC(=O)Nc1ccc(Cl)c(C(F)(F)F)c1)=N\NC(N)=S,"inconclusive [inhibitor, full curve, poor fit]",
Clc1ccc2c(c1)-c1[nH]ncc1CS2,"inconclusive [inhibitor, partial curve, poor fit]",
COc1ccc(-n2cc(CNCCc3ncc(C)[nH]3)c(-c3ccccc3Cl)n2)cc1,"inconclusive [inhibitor, partial curve]",
CC(C(=O)OCC(=O)c1cccc([N+](=O)[O-])c1)N1C(=O)C2C3C=CC(C3)C2C1=O (stereo not drawn),,inactive: -0.692%
O=C(c1ccco1)N1CCN(Cc2nc(-c3cccs3)no2)CC1,"inconclusive [inhibitor, partial curve]",
CCCc1ccc2oc(C(=O)N3CCC(N4CCCC(O)C4)CC3)c(C)c2c1 (stereo not drawn),"inconclusive [inhibitor, full curve, poor fit]",
CC(C)COc1cccc(C(=O)Nc2ccc(-c3nc4ncccc4o3)cc2)c1,"inconclusive [inhibitor, single point]",
